# Measurements published in patent US11685745B2, “Substituted benzoxazole and benzofuran compounds as PDE7 inhibitors” (Dart NeuroScience, LLC, priority 2017, dated 2023).
# Molecular target: N-terminal truncated recombinant human PDE7B enzyme (Homo sapiens (Human), UniProt Q9NP56)
# Test: biochemical
row,Compound,IC50 [nM]
1,"O=C1Nc2c(Cl)cc3nc(C(=O)NC4CCOCC4F)oc3c2C2(CCCCC2)N1 (stereo not shown) [Example 216, 5-Chloro-N-(3-fluorooxan-4-yl)-7-oxo-7,8-dihydro-6H-spiro[[1,3]oxazolo[5,4-f]quinazoline-9,1′-cyclohexane]-2-carboxamide]",100 to 1000
2,"CC(C)C(C)NC(=O)c1cc2cc(Cl)c3c(c2o1)C1(CCCCC1)NC(=O)N3 (stereo not shown) [Example 428, 5′-Chloro-N-(3-methylbutan-2-yl)-7′-oxo-7′,8′-dihydro-6′H-spiro[cyclohexane-1,9′-furo[2,3-f]quinazoline]-2′-carboxamide]",10 to 100
3,"O=C1Nc2c(Cl)cc3cc(CN4CCN5CCCC5C4)oc3c2C2(CCCCC2)N1 (stereo not shown) [Example 528, 5′-Chloro-2′-{octahydropyrrolo[1,2-a]piperazin-2-ylmethyl}-7′,8′-dihydro-6′H-spiro[cyclohexane-1,9′-furo[2,3-f]quinazoline]-7′-one]",100 to 1000
4,"COc1cccc(CNC(=O)c2cc3cc(Cl)c4c(c3o2)C2(CCCCC2)NC(=O)N4)c1OC [Example 294, 5′-Chloro-N-[(2,3-dimethoxyphenyl)methyl]-7′-oxo-7′,8′-dihydro-6′H-spiro[cyclohexane-1,9′-furo[2,3-f]quinazoline]-2′-carboxamide]",10 to 100
5,"CN1CCN(Cc2nc3cc(Cl)c4c(c3o2)C2(CCCCC2)NC(=O)N4)CC1(C)C [Example 94, 5-Chloro-2-[(3,3,4-trimethylpiperazin-1-yl)methyl]-7,8-dihydro-6H-spiro[[1,3]oxazolo[5,4-f]quinazoline-9,1′-cyclohexane]-7-one]",100 to 1000
6,"Cc1nn(C)c(C)c1CN(C)Cc1cc2cc(Cl)c3c(c2o1)C1(CCCCC1)NC(=O)N3 [Example 535, 5′-Chloro-2′-({methyl[(trimethyl-1H-pyrazol-4-yl)methyl]amino}methyl)-7′,8′-dihydro-6′H-spiro[cyclohexane-1,9′-furo[2,3-f]quinazoline]-7′-one]",10 to 100
7,"CN(C)C1CCN(C(=O)c2cc3cc(Cl)c4c(c3o2)C2(CCCCC2)NC(=O)N4)C1 (stereo not shown) [Example 407, 5′-Chloro-2′-[3-(dimethylamino)pyrrolidine-1-carbonyl]-7′,8′-dihydro-6′H-spiro[cyclohexane-1,9′-furo[2,3-f]quinazoline]-7′-one]",100 to 1000
8,"CCOCCNC(=O)c1cc2cc(Cl)c3c(c2o1)C1(CCCCC1)NC(=O)N3 [Example 268, 5′-Chloro-N-(2-ethoxyethyl)-7′-oxo-7′,8′-dihydro-6′H-spiro[cyclohexane-1,9′-furo[2,3-f]quinazoline]-2′-carboxamide]",10 to 100
9,"CC(NCc1nc2cc(Cl)c3c(c2o1)C1(CCCCC1)NC(=O)N3)C1CCCCO1 (stereo not shown) [Example 104, 5-Chloro-2-({[1-(oxan-2-yl)ethyl]amino}methyl)-7,8-dihydro-6H-spiro[[1,3]oxazolo[5,4-f]quinazoline-9,1′-cyclohexane]-7-one]",10 to 100
10,"O=C1Nc2c(Cl)cc3cc(CN[C@H]4CCOC4)oc3c2C2(CCCCC2)N1 [Example 579, 5′-Chloro-2′-({[(3S)-oxolan-3-yl]amino}methyl)-7′,8′-dihydro-6′H-spiro[cyclohexane-1,9′-furo[2,3-f]quinazoline]-7′-one]",10 to 100
11,"O=C1Nc2c(Cl)cc3nc(CNC4(C5CC5)CCOCC4)oc3c2C2(CCCCC2)N1 [Example 150, 5-Chloro-2-{[(4-cyclopropyloxan-4-yl)amino]methyl}-7,8-dihydro-6H-spiro[[1,3]oxazolo[5,4-f]quinazoline-9,1′-cyclohexane]-7-one]",10 to 100
12,"CN(CCO)Cc1cc2cc(Cl)c3c(c2o1)C1(CCCCC1)NC(=O)N3 [Example 500, 5′-Chloro-2′-{[(2-hydroxyethyl)(methyl)amino]methyl}-7′,8′-dihydro-6′H-spiro[cyclohexane-1,9′-furo[2,3-f]quinazoline]-7′-one]",100 to 1000
13,"O=C1Nc2c(Cl)cc3cc(CN4C[C@@H]5[C@@H](CO)[C@@H]5C4)oc3c2C2(CCCCC2)N1 [Example 498, 5′-Chloro-2′-{[(1R,5S,6S)-6-(hydroxymethyl)-3-azabicyclo[3.1.0]hexan-3-yl]methyl}-7′,8′-dihydro-6′H-spiro[cyclohexane-1,9′-furo[2,3-f]quinazoline]-7′-one]",100 to 1000
14,"CN1CCC(N(C)C(=O)c2cc3cc(Cl)c4c(c3o2)C2(CCCCC2)NC(=O)N4)CC1 [Example 426, 5′-Chloro-N-methyl-N-(1-methylpiperidin-4-yl)-7′-oxo-7′,8′-dihydro-6′H-spiro[cyclohexane-1,9′-furo[2,3-f]quinazoline]-2′-carboxamide]",100 to 1000
15,"C[C@@H](NCc1nc2cc(Cl)c3c(c2o1)C1(CCCCC1)NC(=O)N3)C(=O)N(C)C [Example 143, (2R)-2-({5-Chloro-7-oxo-7,8-dihydro-6H-spiro[[1,3]oxazolo[5,4-f]quinazoline-9,1′-cyclohexane]-2-ylmethyl}amino)-N,N-dimethylpropanamide]",10 to 100
16,"Cc1noc(C)c1CCN(C)Cc1cc2cc(Cl)c3c(c2o1)C1(CCCCC1)NC(=O)N3 [Example 559, 5′-Chloro-2′-({[2-(dimethyl-1,2-oxazol-4-yl)ethyl](methyl)amino}methyl)-7′,8′-dihydro-6′H-spiro[cyclohexane-1,9′-furo[2,3-f]quinazoline]-7′-one]",10 to 100

row,Compound,IC50 [nM]
1,"O=C1Nc2c(Cl)cc3cc(C(=O)N4CCN(C(=O)c5ccccc5)CC4)oc3c2C2(CCCCC2)N1 [Example 362, 2′-(4-Benzoylpiperazine-1-carbonyl)-5′-chloro-7′,8′-dihydro-6′H-spiro[cyclohexane-1,9′-furo[2,3-f]quinazoline]-7′-one]",10 to 100
2,"O=C1CN(Cc2cc3cc(Cl)c4c(c3o2)C2(CCCCC2)NC(=O)N4)CCN1 [Example 469, 5′-Chloro-2′-[(3-oxopiperazin-1-yl)methyl]-7′,8′-dihydro-6′H-spiro[cyclohexane-1,9′-furo[2,3-f]quinazoline]-7′-one]",100 to 1000
3,"CN(Cc1cc(-c2ccccc2)on1)C(=O)c1cc2cc(Cl)c3c(c2o1)C1(CCCCC1)NC(=O)N3 [Example 345, 5′-Chloro-N-methyl-7′-oxo-N-[(5-phenyl-1,2-oxazol-3-yl)methyl]-7′,8′-dihydro-6′H-spiro[cyclohexane-1,9′-furo[2,3-f]quinazoline]-2′-carboxamide]",100 to 1000
4,"CN(C)CCC1CCN(C(=O)c2cc3cc(Cl)c4c(c3o2)C2(CCCCC2)NC(=O)N4)CC1 [Example 328, 5′-Chloro-2′-{4-[2-(dimethylamino)ethyl]piperidine-1-carbonyl}-7′,8′-dihydro-6′H-spiro[cyclohexane-1,9′-furo[2,3-f]quinazoline]-7′-one]",10 to 100
5,"COCCOC1CCN(Cc2nc3cc(Cl)c4c(c3o2)C2(CCCCC2)NC(=O)N4)CC1 [Example 156, 5-Chloro-2-{[4-(2-methoxyethoxy)piperidin-1-yl]methyl}-7,8-dihydro-6H-spiro[[1,3]oxazolo[5,4-f]quinazoline-9,1′-cyclohexane]-7-one]",100 to 1000
6,"Cc1ccc(CNC(=O)c2cc3cc(Cl)c4c(c3o2)C2(CCCCC2)NC(=O)N4)cn1 [Example 342, 5′-Chloro-N-[(6-methylpyridin-3-yl)methyl]-7′-oxo-7′,8′-dihydro-6′H-spiro[cyclohexane-1,9′-furo[2,3-f]quinazoline]-2′-carboxamide]",10 to 100
7,"O=C1Nc2c(Cl)cc3nc(CNCC(=O)N4CCCCC4)oc3c2C2(CCCCC2)N1 [Example 55, 5-Chloro-2-({[2-oxo-2-(piperidin-1-yl)ethyl]amino}methyl)-7,8-dihydro-6H-spiro[[1,3]oxazolo[5,4-f]quinazoline-9,1′-cyclohexane]-7-one]",10 to 100
8,"O=C1Nc2c(Cl)cc3cc(C(=O)N4CCCCCC4)oc3c2C2(CCCCC2)N1 [Example 422, 2′-(Azepane-1-carbonyl)-5′-chloro-7′,8′-dihydro-6′H-spiro[cyclohexane-1,9′-furo[2,3-f]quinazoline]-7′-one]",10 to 100
9,"O=C1Nc2c(Cl)cc3nc(CN4CCC(F)(F)C4)oc3c2C2(CCCCC2)N1 [Example 46, 5-Chloro-2-[(3,3-difluoropyrrolidin-1-yl)methyl]-7,8-dihydro-6H-spiro[[1,3]oxazolo[5,4-f]quinazoline-9,1′-cyclohexane]-7-one]",10 to 100
10,"CC(C)N1CCN(C(=O)c2cc3cc(Cl)c4c(c3o2)C2(CCCCC2)NC(=O)N4)CC1 [Example 415, 5′-Chloro-2′-[4-(propan-2-yl)piperazine-1-carbonyl]-7′,8′-dihydro-6′H-spiro[cyclohexane-1,9′-furo[2,3-f]quinazoline]-7′-one]",10 to 100
11,"COCCN(C(=O)c1cc2cc(Cl)c3c(c2o1)C1(CCCCC1)NC(=O)N3)C(C)C [Example 270, 5′-Chloro-N-(2-methoxyethyl)-7′-oxo-N-(propan-2-yl)-7′,8′-dihydro-6′H-spiro[cyclohexane-1,9′-furo[2,3-f]quinazoline]-2′-carboxamide]",10 to 100
12,"O=C1Nc2c(Cl)cc3cc(C(=O)N4CCN(c5ccc(Cl)cn5)CC4)oc3c2C2(CCCCC2)N1 [Example 329, 5′-Chloro-2′-{4-(5-chloropyridin-2-yl)piperazine-1-carbonyl}-7′,8′-dihydro-6′H-spiro[cyclohexane-1,9′-furo[2,3-f]quinazoline]-7′-one]",100 to 1000
13,"O=C1Nc2c(Cl)cc3nc(CNCC(=O)N4CCCC4)oc3c2C2(CCCCC2)N1 [Example 144, 5-Chloro-2-({[2-oxo-2-(pyrrolidin-1-yl)ethyl]amino}methyl)-7,8-dihydro-6H-spiro[[1,3]oxazolo[5,4-f]quinazoline-9,1′-cyclohexane]-7-one]",10 to 100
14,"O=C1Nc2c(Cl)cc3nc(CNCc4ncc(F)cc4F)oc3c2C2(CCCCC2)N1 [Example 53, 5-Chloro-2-({[(3,5-difluoropyridin-2-yl)methyl]amino}methyl)-7,8-dihydro-6H-spiro[[1,3]oxazolo[5,4-f]quinazoline-9,1′-cyclohexane]-7-one]",10 to 100
15,"O=C1Nc2c(Cl)cc3nc(CN4CC[C@@H](O)C4)oc3c2C2(CCCCC2)N1 [Example 121, 5-Chloro-2-{[(3R)-3-hydroxypyrrolidin-1-yl]methyl}-7,8-dihydro-6H-spiro[[1,3]oxazolo[5,4-f]quinazoline-9,1′-cyclohexane]-7-one]",10 to 100
